Paper PMC4336329 (PLoS ONE, 2015)
Out of some 310,000 compounds screened, about 2,200 (0.71%) showed an effect of 50% or more. Effects have a minus sign here. This is one part of the list.

target: human ether-à-go-go-related gene (hERG) potassium channel (human, UniProt Q12809); assay: primary screen, population patch clamp on CHO cells stably expressing hERG
Sequence (Q12809 whole entry, looked up): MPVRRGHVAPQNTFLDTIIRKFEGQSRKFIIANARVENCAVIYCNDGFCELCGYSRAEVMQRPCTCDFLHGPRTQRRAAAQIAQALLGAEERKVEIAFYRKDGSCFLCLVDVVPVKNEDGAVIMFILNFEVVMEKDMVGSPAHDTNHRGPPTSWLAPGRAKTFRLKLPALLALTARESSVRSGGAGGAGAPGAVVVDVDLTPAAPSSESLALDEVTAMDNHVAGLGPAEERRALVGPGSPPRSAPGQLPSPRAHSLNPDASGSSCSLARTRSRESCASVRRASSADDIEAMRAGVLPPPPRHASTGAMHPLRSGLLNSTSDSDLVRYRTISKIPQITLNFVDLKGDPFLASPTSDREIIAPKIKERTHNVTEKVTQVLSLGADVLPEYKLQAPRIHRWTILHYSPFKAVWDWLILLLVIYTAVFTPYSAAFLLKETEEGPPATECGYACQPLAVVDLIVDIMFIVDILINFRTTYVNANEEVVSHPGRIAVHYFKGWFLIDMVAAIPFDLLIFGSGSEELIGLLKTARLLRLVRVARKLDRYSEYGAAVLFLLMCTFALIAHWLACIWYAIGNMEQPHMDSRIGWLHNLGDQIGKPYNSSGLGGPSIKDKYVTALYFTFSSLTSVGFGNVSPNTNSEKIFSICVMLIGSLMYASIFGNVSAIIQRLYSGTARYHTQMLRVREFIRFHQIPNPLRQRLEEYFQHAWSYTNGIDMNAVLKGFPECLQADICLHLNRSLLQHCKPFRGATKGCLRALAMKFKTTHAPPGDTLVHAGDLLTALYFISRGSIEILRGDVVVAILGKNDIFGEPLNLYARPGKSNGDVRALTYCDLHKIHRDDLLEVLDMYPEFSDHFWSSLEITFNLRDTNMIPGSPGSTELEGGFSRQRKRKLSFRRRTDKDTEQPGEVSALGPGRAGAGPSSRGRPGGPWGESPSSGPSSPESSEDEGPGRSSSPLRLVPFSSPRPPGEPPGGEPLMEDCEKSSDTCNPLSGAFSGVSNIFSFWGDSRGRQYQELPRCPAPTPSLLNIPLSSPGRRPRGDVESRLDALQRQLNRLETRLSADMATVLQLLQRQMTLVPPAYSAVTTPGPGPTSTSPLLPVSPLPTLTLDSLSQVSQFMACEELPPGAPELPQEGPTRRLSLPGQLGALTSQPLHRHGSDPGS

SMILES | hERG current change (%, negative = inhibition) at 1uM [%]
Cc1cccc(C)c1NC(=S)N(Cc1ccco1)C1CCN(C(C)C)CC1 | 11.8
Clc1cccc(OCCOCCN2CCNCC2)c1Cl.O=C(O)C(=O)O | 5.14
CCCNC(=O)Nc1ccc2c(c1)nc(C)n2C | 4.83
O=C(CSc1ccc(-c2cccs2)nn1)N1CCCCCC1 | 5.76
CC(=O)Oc1cc2c(C(=O)NCCCN3CCOCC3)c(C)oc2c2ccccc12 | 0.557
CCC(C)N1C(=O)/C(=C/c2c(NCCCOC(C)C)nc3c(C)cccn3c2=O)SC1=S (stereo not shown) | 2.13
Cc1csc(SCc2ccc(C(=O)O)cc2)n1 | -3.47
COc1ccc2c(c1)CC/C(=C\Nc1ccc3c(c1)OCO3)C2=O | 6.86
CN(C)S(=O)(=O)c1ccc(N2CCCC2)c(C(=O)NNC(=O)c2ccccc2)c1 | 2.3
CC(C)Oc1ccc(C(=O)Nc2c3c(nn2-c2ccccc2)CS(=O)(=O)C3)cc1 | -4.11
O=S(=O)(NC1CCCC1)c1ccccc1Br | 9.04
O=S(=O)(c1ccccc1Oc1ccc(Cl)cc1Cl)N1CCCCC1 | 14.2
CC(C)=CCN1CCN(CCCc2ccccc2)CC1CCO (stereo not shown) | 7.79
COc1cc(C2CC(=O)N(CC(=O)NCC3CCCO3)c3ccccc3S2)cc(OC)c1OC (stereo not shown) | 11.4
Cc1ccsc1CNCC(O)c1ccccc1.Cl (stereo not shown) | 17.6
CCOC(=O)N1CCN(C(=O)C(NS(=O)(=O)c2cccc3nsnc23)c2ccccc2)CC1 (stereo not shown) | 5.04
CCOC(=O)C1(C)C=C(Nc2ccc(NC(C)=O)cc2)C(=O)N1c1ccc(NC(C)=O)cc1 (stereo not shown) | 14.3
CC(C)CC(=O)Nc1nnc(SCC(=O)NC2CCCCC2)s1 | 18.1
COc1ccc2c(c1)CCc1c(C(=O)N3CCOCC3)noc1-2 | -7.1
O=C(CCCCn1c(=O)[nH]c2ccccc2c1=O)N1CCN(c2ncccn2)CC1 | 9.76
O=C(CCCn1c(=S)[nH]c2ccsc2c1=O)Nc1ccc2c(c1)OCO2 | 12.7
Cc1ccc(-c2noc(CCC(=O)NCc3ccc4c(c3)OCO4)n2)cc1 | 11.4
Cc1ccc(-c2c3c(=O)n(C)c(=O)n(C)c3cn2Cc2ccccc2)cc1 | -2.49
O=C(CSc1ccccn1)Nc1ccc(NC(=O)CSc2ccccn2)cc1 | 8.03
O=C(COC(=O)c1ccc2c(c1)OCCO2)NCCC1=CCCCC1 | -4.23
Cl.O=C(CSc1nnc(-c2ccccc2)n1C1CCCCC1)Nc1ccc(S(=O)(=O)Nc2ccccn2)cc1 | 1.7
COC(=O)CNC(=O)Cn1c(=O)n(Cc2ccc(F)cc2)c(=O)c2sccc21 | 12.4
CCN(CC)S(=O)(=O)c1ccc(C(=O)N2CCCCC2)cc1 | 23.7

SMILES | hERG current change (%, negative = inhibition) at 1uM [%]
CC1C(=O)Nc2ccccc2N1C(=O)c1ccccc1 (stereo not shown) | 12.6
O=C(CS(=O)(=O)Cc1ccccc1)Nc1ncccn1 | 13
O=C(CCCCCN1C(=O)c2ccccc2C1=O)Nc1nccs1 | -6.03
CS(=O)(=O)c1nc(S(=O)(=O)c2ccc(Cl)cc2)c(NCCCN2CCOCC2)s1 | 7.76
CC#CC[N+](C)(C)CCCCCCCCCC.[Br-] | 3.29
Cc1oc(-c2ccoc2)nc1CN(CC1CCC(=O)N1)C(C)C (stereo not shown) | 11.6
COc1ccc(-c2ccc(-c3noc(-c4cccs4)n3)c(OC)n2)cc1 | 5.36
COc1ccccc1NC(=O)Cc1ccsc1 | 14.5
COc1ccc(N2CCN(C(=O)NC(=O)c3ccccc3)CC2)cc1 | 7.62
O=C(Nc1cc(C(=O)N2CCCC2)ccc1N1CCCC1)c1ccccc1 | -83.5
COc1ccc(CNC(=O)C(c2ccco2)N(C(=O)c2snc(C(N)=O)c2N)c2cccc(OC)c2)cc1 (stereo not shown) | 13.3
Cc1c(/C(O)=C2\C(=O)C(=O)N(CCN(C)C)C2c2cccnc2)cnn1-c1ccccc1 (stereo not shown) | 0.231
COc1ccc(CCNC(=S)NCCc2ccc(OC)c(OC)c2)cc1OC | 5.3
CN1CCN(c2c(F)cc3c(=O)c(C(=O)[O-])cn4c3c2OCN4C)CC1 | 18.5
COc1ccc(OCc2cc(C(=O)N(C)CC3CCCCO3)no2)c(Cl)c1 (stereo not shown) | -1.77
COc1ccc(NC(=O)Nc2ccccc2SC)cc1OC | 10.1
CCS(=O)(=O)N1Cc2ccccc2CC1C(=O)N1CCN(c2ccccc2)CC1 (stereo not shown) | -7.81
O=C(Cc1c(F)cccc1Cl)Nc1cccc(S(=O)(=O)NC2=NCCCCC2)c1 | 11.9
COc1ccccc1N1CCN(c2nc(N)c(C#N)c(CC#N)c2C#N)CC1 | -10.7
CC(=O)c1c(N2CCN(Cc3ccccc3)CC2)nc(=S)n(-c2ccccc2)c1C | 6.07
Cc1ccc(Cl)c(OCCN2CCCC(C)C2)c1.O=C(O)C(=O)O (stereo not shown) | 6.63
COc1ccccc1NS(=O)(=O)c1cc(NC(=O)CN2C(=O)NC3(CCCC3)C2=O)ccc1C | 1.57
COC(=O)c1ccccc1NC(=O)C1CCCC1 | -16.1
CC(C)[C@H]1C(=O)Nc2ccccc2N1C(=O)N[C@@H](Cc1ccccc1)C(=O)N[C@@H](Cc1ccccc1)C(=O)O | 11.6
CC(=O)Nc1ccc(S(=O)(=O)N(Cc2ccccc2)c2ccccc2)cc1 | 4.19
Cc1ccc(CC(=O)N(Cc2ccccc2)c2ccccn2)cc1 | 4.37
COc1ccc(/C=N/NC(=O)c2cccnc2)cc1CN1CCc2ccccc2C1 | 1.59
